# Test results reported in a collection of fitness landscapes (doi:10.1126/science.1257360).
# The list shows a part of the results.
# B1: PhoQ; a variant is named by its letters at X, in order, P23837 (parent)
# chain: MKKLLRLFFPLSLRVRFLLATAAVVLVLSLAYGMVALIGYSVSFDKTTFRLLRGESNLFYTLAKWENNKLHVELPENIDKQSPTMTLIYDENGQLLWAQRDVPWLMKMIQPDWLKSNGFHEIEADVNDTSLLLSGDHSIQQQLQEVREDDDDAEMTHSVAVNVYPATSRMPKLTIVVVDTIPVELKSSYMVWSWFIYVLSANLLLVIPLLWVAAWWSLRPIEALAKEVRELEEHNRELLNPATTRELTSLVRNLNRLLKSERERYDKYRTTLTDLTHSLKTPLXXLQXXLRSLRSEKMSVSDAEPVMLEQISRISQQIGYYLHRASMRGGTLLSRELHPVAPLLDNLTSALNKVYQRKGVNISLDISPEISFVGEQNDFVEVMGNVLDNACKYCLEFVEISARQTDEHLYIVVEDDGPGIPLSKREVIFDRGQRVDTLRPGQGVGLAVAREITEQYEGKIVAGESMLGGARMEVIFGRQHSAPKDE
# Variants of: B1
# Test: enrichment ratio after two sorts for PhoP signalling (ratio (wild type AVST 3.29)); higher = more functional
# Details: with PhoP (E. coli)
row,Variant,enrichment ratio
1,MHHW,≤ 0.25
2,KKAT,≤ 0.25
3,YHIE,≤ 0.25
4,IGTN,≤ 0.25
5,YTQS,≤ 0.25
6,ACTF,7.93
7,LCVM,≤ 0.25
8,HEEF,≤ 0.25
9,MADW,≤ 0.25
10,QMLE,≤ 0.25
11,SHPD,≤ 0.25
12,GTCN,3.53
13,WSRT,≤ 0.25
14,SWYI,≤ 0.25
15,DFVQ,≤ 0.25
16,EATD,≤ 0.25
17,DFFV,≤ 0.25
18,MYGE,≤ 0.25
19,RWEI,≤ 0.25
20,ACDV,≤ 0.25
21,MMDG,≤ 0.25
22,FSNV,≤ 0.25
23,DMFP,≤ 0.25
24,WMSF,≤ 0.25
25,RHEL,≤ 0.25

row,Variant,enrichment ratio
1,MNLA,≤ 0.25
2,YRVI,≤ 0.25
3,FGWG,≤ 0.25
4,HYFI,≤ 0.25
5,ALGS,≤ 0.25
6,QSDT,1.97
7,LACP,≤ 0.25
8,TTAQ,8.86
9,LEWP,≤ 0.25
10,RRQF,≤ 0.25
11,QMVD,≤ 0.25
12,NTHQ,≤ 0.25
13,EYAG,≤ 0.25
14,GASV,≤ 0.25
15,TQLP,≤ 0.25
16,EIAQ,≤ 0.25
17,HAWL,≤ 0.25
18,TGGI,3.92
19,QRGF,≤ 0.25
20,SIVK,4.61
21,TGGG,1.15
22,YFNV,≤ 0.25
23,AECR,≤ 0.25
24,HHKH,≤ 0.25
25,WWWK,≤ 0.25

row,Variant,enrichment ratio
1,WNGM,≤ 0.25
2,DDKH,≤ 0.25
3,ETPQ,≤ 0.25
4,RPVY,≤ 0.25
5,VMRE,2.09
6,MRLT,≤ 0.25
7,PTAV,≤ 0.25
8,YSHQ,0.532
9,CAIL,≤ 0.25
10,NCLD,≤ 0.25
11,REMF,≤ 0.25
12,HKAY,≤ 0.25
13,NTKI,≤ 0.25
14,EWWQ,≤ 0.25
15,GGGW,≤ 0.25
16,FNKG,≤ 0.25
17,WDCR,≤ 0.25
18,HQGM,≤ 0.25
19,IHQW,≤ 0.25
20,PYIN,≤ 0.25
21,KVMK,≤ 0.25
22,SAKP,≤ 0.25
23,VVWQ,≤ 0.25
24,WKWP,≤ 0.25
25,QWYL,≤ 0.25

row,Variant,enrichment ratio
1,RRVI,≤ 0.25
2,RIFE,≤ 0.25
3,PECQ,≤ 0.25
4,VVKY,≤ 0.25
5,SNQI,12.5
6,AGFP,≤ 0.25
7,LRAY,≤ 0.25
8,NWVP,≤ 0.25
9,GFRY,≤ 0.25
10,MAHN,≤ 0.25
11,NKYA,≤ 0.25
12,SHTG,≤ 0.25
13,ARTT,≤ 0.25
14,MKAH,≤ 0.25
15,APCC,≤ 0.25
16,LCTS,≤ 0.25
17,QTPN,≤ 0.25
18,GRMK,≤ 0.25
19,QPHW,≤ 0.25
20,NVMF,≤ 0.25
21,GKSE,≤ 0.25
22,EANP,≤ 0.25
23,LWQR,≤ 0.25
